The source gives no read counts; variants with many changes may rest on few reads.
B1: LINE1-full (parent)
chain: UACGUAGGUGGUUUUCCCCUGAUAGUGCUAAGGGGGCCUGGAAGUUUGGACUGGGCAGAGCUCAACACAGCGUGGCAAAGUGGCUGUGGCUAGACUGCCUCUCUGGAUUCCUCGUCACUCAGCAGGGCAUCUCUGAGAGAAAUGCC

Variants of: B1
Experiment: self-cleavage, relative activity (ratio to wild type); higher = more cleavage; in vitro, sequencing; the parent is a self-cleaving ribozyme

Question: With UACGUAGGUGGUUUUCCCCUGAUAGUGCUAAGGGGGCCUGGAGGUUUGGACUGGGCAGAGCACAACACAGCGUGGCAAAGUGUCUGUGGCUAGACUGCCUCUCUGGAUUCCUCGUCACUCAGCAGGGCAUCUCUGAGAGAAAUGCC as the variant, how does the self-cleavage read?
Answer: 0.05

Question: Which self-cleavage does the source give for UACGUAGGUGGUUUUCCCCUGAUAGUGCUAAGGGGGCCUGGAGGUUUGGACUGGGCAGAGCCCAACACAGCGUGGCAAAGUGGCUGUGGCUAGACUGCCUCUCUGGAUCCCUCGUCACUCAGCAGGGCAUCUCUGAGAGAAAUGCC here?
Answer: 0

Question: With UACGUAGGUGGUUUUCCCCUGAUAGUGCUAAGGGGGCCUGGAGGUUUGGACUGGGCAGAGCCCAACACAGCGUAGCAAAGUGGCUGUGGCUAGACUGCCUCUCUGGAUUCCUCGUCACUCAGCAGGGCAUCUCUGAGAGAAAUGCC as the variant, how does the self-cleavage read?
Answer: 0.06

Question: With UACGUAGGUGGUUUUCCCCUGAUAGUGCUAAGGGGGCCUGGAGGUUUGGACUGGGCAGAGCUCAACACAGCGUGGCAAAGUGGCUGUGGCUAGACUGCCUCCCUGGAUUCCUCGUCACUCAGCAGAGCAUCUCUGAGAGAAAUGCC as the variant, how does the self-cleavage read?
Answer: 1.71

Question: With UACGUAGGUGGUUUUCCCCUGAUAGUGCUAAGGGGGCCUGGAUGUUUGGACUGGGCAGAGCUCAACACAGCGUGGCAAAGUGGCUGUGGCUAGGCUGCCUCUCUGGAUUCCUCGUCACUCAGCAGGGCAUCCCUGAGAGAAAUGCC as the variant, how does the self-cleavage read?
Answer: 0.12

Question: With UACGUAGGUGGUUUUCCCCUGAUAGUGCUAAGGGGGCCUGGAUGUUUGGACUGGGCAGAGCUCAACACAGCGUGGCUAAGUGGCUGUGGCUAGACUGCCUCUCUGGAUUCCUCGCCACUCAGCAGGGCAUCUCUGAGAGAAAUGCC as the variant, how does the self-cleavage read?
Answer: 1.51

Question: With UACGUAGGUGGUUUUCCCCUGAUAGUGCUAAGGGGGCCUGGAGGUUUGGACUGGGCAGAGCUCAACACAGCGUGGCAAAGCGGCUGUGGCUAGACUGCCUCUCUGGAUUCCUCGUCACUCAGCAGGGCACCUCUGAGAGAGAUGCC as the variant, how does the self-cleavage read?
Answer: 1.84

Question: For UACGUAGGUGGUUUUCCCCUGAUAGUGCUAAGGGGGCCUGGAGGUUUGGACUGGGCAGAGCUCAACACAGCGUGGCAAAGUGGCUGUGGCUAGACUGCCUCACUGGAUUCCUCGUCACUCAGCUGGGCAUCUCUGAGAGAGAUGCC, which self-cleavage is on record?
Answer: 0.1

Question: With UACGUAGGUGGUUUUCCCCUGAUAGUGCUAAGGGGGCCUGGAGGUUUGGACUGGGCAGAGCACAACACAGCGUGGCAAAGUGGCUGUGGCUAGACUGCCCCUCUGGAUUCCUCGUCACACAGCAGGGCAUCUCUGAGAGAAAUGCC as the variant, how does the self-cleavage read?
Answer: 0

Question: Which self-cleavage does the source give for UACGUAGGUGGUUUUCCCCUGAUAGUGCUAAGGGGGCCUGGAUGUUUGGACUGGGCAGAGCUCAACGCAGCGUGGCAAAGCGGCUGUGGCUAGACUGCCUCUCUGGAUUCCUCGUCACUCAGCAGGGCAUCUCUGAGAGAAAUGCC here?
Answer: 0

Question: Which self-cleavage does the source give for UACGUAGGUGGUUUUCCCCUGAUAGUGCUAAGGGGGCCUGGAGGUUUGGACUGGGCAGAGCUCAACACAGCGUGGCAAAGUGGCUGUGGCUAGACUGCCUCCCUGGAUUCCCCGUCACUCAGCAGGGCAUCUCUGAGAGAAAUGCC here?
Answer: 1.06

Question: With UACGUAGGUGGUUUUCCCCUGAUAGUGCUAAGGGGGCCUGGAUGUUUGGACUGGGCAGAGCUCAACAUAGCGUGGCAAAGUGGCUGUGGCUAGACUGCCUCUCUGGAUUUCUCGACACUCAGCAGGGCAUCUCUGAGAGAAAUGCU as the variant, how does the self-cleavage read?
Answer: 0.07

Question: With UACGUAGGUGGUUUUCCCCUGAUAGUGCUAAGGGGGCCUGGAUGCUUGGACUGGGCAGAGCUCAACACAGCGUGGCAAAGUGGCUGUGGCUAGACUGCCUCUCUGGAUUCCCCGUCACUCAGCAGGGCAUCUCUGAGAGAAAUGCC as the variant, how does the self-cleavage read?
Answer: 0.59

Question: Which self-cleavage does the source give for UACGUAGGUGGUUUUCCCCUGAUAGUGCUAAGGGGGCCUGGAGGUUUGGACUGGGCAGAGCUCAACACAGCGUGGCAAAGUGGCUGUGGCUAGACUGCCUCUCUGGAUUCCCCGUCGCUCAGCAGGGCAUCUCUGAGAGAAAUGCC here?
Answer: 0.84

Question: Which self-cleavage does the source give for UACGUAGGUGGUUUUCCCCUGAUAGUGCUAAGGGGGCCUGGAUGUUUGGACUGGGCAGGGCUCAACUCAGCGUGGCAAAGUGGCUGUGGCUAGACUGCCUCUCUGGAUUCCUCGUCACUCGGCAGGGCAUCUCUGAGAGAAAUGCC here?
Answer: 0.13

Question: With UACGUAGGUGGUUUUCCCCUGAUAGUGCUAAGGGGGCCUGGAGGUUUGGACUGGGCAGAGCACGACACAGCGUGGCAAAGUGGCUGUGGCUAGACUGCCUCUCUGGAUUCCUCGUCACUCAGCAGGGCAUCUCUGAGAGAAGUGCC as the variant, how does the self-cleavage read?
Answer: 0.19

Question: Which self-cleavage does the source give for UACGUAGGUGGUUUUCCCCUGAUAGUGCUAAGGGGGCCUGGAUGUUCGGACUGGGCAGAGCUCAACACUGCGUGGCAAAGUGGCUGUGGCUAGACUGCCUCUCUGGAUUCCUCGUCACUCAGCAGGGCAUCUCUGAGAGAAAUGCC here?
Answer: 0.02

Question: For UACGUAGGUGGUUUUCCCCUGAUAGUGCUAAGGGGGCCUGGAUGUUUGGACUGGGCAGAGCUCAACCCAGCGCGGCAAAGUGGCUGUGGCUAGACUGCCUCUCAGGAUUCCUCGUCACUCAGCAGGGCAUCUCUGAGAGAAAUGCC, which self-cleavage is on record?
Answer: 0.2

Question: For UACGUAGGUGGUUUUCCCCUGAUAGUGCUAAGGGGGCCUGGAGGUUUGGACCUGGCAGAGCUCAACACAGCGUGGCAAAGUGGCUGUGGCUAGACUGCCACUCUGGAUUCCUCGUCACUCAGCAGGGCAUCUCUGAGAGAAAUGCC, which self-cleavage is on record?
Answer: 1.05

Question: With UACGUAGGUGGUUUUCCCCUGAUAGUGCUAAGGGGGCCUGGAUGUUUGGACUGGGCAGAGCUCGACACAGCGUGGCAAAGUGGCUGCGGCUAGACUGCCUCUCUGGAUUCCUCGUCACUCAGCAGGGCAUCUCUGAGAGAAAUGCC as the variant, how does the self-cleavage read?
Answer: 0

Question: With UACGUAGGUGGUUUUCCCCUGAUAGUGCUAAGGGGGCCUGGAGGUUUGGACUGGGCAGAGCUCAACACAGCGUGGCAAAGUGGCUGUGGCUAGACUGCCUCUCUGGAUACCUCGUCACUCAGCGGGGCAUCUCUGAGAGUAAUGCC as the variant, how does the self-cleavage read?
Answer: 0.25

Question: For UACGUAGGUGGUUUUCCCCUGAUAGUGCUAAGGGGGCCUGGAUGCUAGGACUGGGCAGAGCUCAACACAGCGUGGCAAAGUGGCUGUGGCUAGACUGCCUCUCUGGAUUCCUCGUCACUCAGCAGGGCAUCUCUGAGAGAAAUGCC, which self-cleavage is on record?
Answer: 1.25

Question: With UACGUAGGUGGUUUUCCCCUGAUAGUGCUAAGGGGGCCUGGAUGUUCGGACUGGGCAGAGCUCAACACAGCGUGGCAAAGUGGCUGUAGCUAGACUGCCUCUCUGGAUUCCUCGUCACCCAGCAGGGCAUCUCUGAGAGAAAUGCC as the variant, how does the self-cleavage read?
Answer: 0.06

Question: For UACGUAGGUGGUUUUCCCCUGAUAGUGCUAAGGGGGCCUGGAGGUUUGGACUGGGCAGAGCCCAACACAGCGUGGCAAAGUGGCUGUGGCUAGACUGCCUCUCUGGAUUCCUCGUCACUCAGCAGGGCAUCUCUGAGAGAGAUGCC, which self-cleavage is on record?
Answer: 0.05

Question: Which self-cleavage does the source give for UACGUAGGUGGUUUUCCCCUGAUAGUGCUAAGGGGGCCUGGAUGUUUGGACUGGGCAGAGCUCAACACAGCGUGGCAAAGUGGCUGUGGCUAGGCUGCCCCUCUGGAUUUCUCGUCACUCAGCAGGGCAUCUCUGAGAGAAAUGCC here?
Answer: 0.58

Question: Which self-cleavage does the source give for UACGUAGGUGGUUUUCCCCUGAUAGUGCUAAGGGGGCCUGGAUGUUUGGACUGGGCAGAGCUCAACACUGCGUGGCAAAGUGGCUGUGGCUAGACUGCCUCUCUGGAUCCCUCGUCACUCAGCAGGGCAUCUCUGAGAGAAAUACC here?
Answer: 0.14

Question: For UACGUAGGUGGUUUUCCCCUGAUAGUGCUAAGGGGGCCUGGAUGUUUGGACUGGGCAGAGCUCGACACAGUGUGGCAAAGUGGCCGUGGCUAGACUGCCUCUCUGGAUUCCUCGUCACUCAGCAGGGCAUCUCUGAGAGAAAUGCC, which self-cleavage is on record?
Answer: 0.07

Question: Which self-cleavage does the source give for UACGUAGGUGGUUUUCCCCUGAUAGUGCUAAGGGGGCCUGGAUGUUCGGACUGGGCAGAGCUCAGCACAGCGAGGCAAAGUGGCUGUGGCCAGACUGCCUCUCUGGAUUCCUCGUCACUCAGCAGGGCAUCUCUGAGAGUAAUGCC here?
Answer: 0

Question: With UACGUAGGUGGUUUUCCCCUGAUAGUGCUAAGGGGGCCUGGAGGUUUGGACUGGGCAGAGCUCAACACAGCGUGGCAAAGUGGCCGUGGCUAGACUGCCCCUCUGGAUUCCUCGUCACUCAGCAGGGCAUCACUGAGAGAAAUGCC as the variant, how does the self-cleavage read?
Answer: 0

Question: For UACGUAGGUGGUUUUCCCCUGAUAGUGCUAAGGGGGCCUGGAGGUUUGGACUGGGCAGAGCUCAACACAGCGUGGCAAAGUGGCUGUGGCUAGACUGCCUCUCUGGAUUCCCCGUCACUCCGCAGGGCAUCUCUGAGAGAAGUGCC, which self-cleavage is on record?
Answer: 0.84

Question: For UACGUAGGUGGUUUUCCCCUGAUAGUGCUAAGGGGGCCUGGAUGUUUGGACUGGGCAGAGCUCAGCACAGCGUGGUGAAGUGGCUGUGGCUAGACUGCCUCUCUGGAUUCCUCGCCACUCAGCAGGGCAUCUCUGAGAGAAAUGCC, which self-cleavage is on record?
Answer: 0.03

Question: With UACGUAGGUGGUUUUCCCCUGAUAGUGCUAAGGGGGCCUGGAGGUUUGGACUGGGCAGAGCUCAACACAGCGUGGCAAAGUGGCCUUGGCUAGACUGCCUCUCUGGAUUCCUCGUCACUCAGCAGGGCAUCUCUGAGAGAGAUGCC as the variant, how does the self-cleavage read?
Answer: 0.06

Question: Which self-cleavage does the source give for UACGUAGGUGGUUUUCCCCUGAUAGUGCUAAGGGGGCCUGGAGGUUUGGACUGGGCAGAGCUCAACACAGCGUGGCAAAGUGGCUGUGGCUAGACAGCCUCUCUGGGUUCCUCGUCACUCAGCAGGGCAUCUCUGAGAGAAAUGCC here?
Answer: 0.08

Question: With UACGUAGGUGGUUUUCCCCUGAUAGUGCUAAGGGGGCCUGGAGGUUUGGACAGGGCAGAGCUCAACACAGCGUGGCAAAGUGGCUGUGGCUAGACUGCCUCUCUGGAUUCCUCGUCACUCAGCAGGGCAUCUCCGAGAGAAAUGCC as the variant, how does the self-cleavage read?
Answer: 0.92

Question: For UACGUAGGUGGUUUUCCCCUGAUAGUGCUAAGGGGGCCUGGAUGUUUGGACUGGGCAGAGCUCAACACAGCGUGGCAAGGUGGCUGCGGCUAGACUGCCUCUCUGGAUUCCUCGUCACUCAGCAGGGCAUCUCUGAGAGAAAUGCC, which self-cleavage is on record?
Answer: 0.2

Question: With UACGUAGGUGGUUUUCCCCUGAUAGUGCUAAGGGGGCCUGGAGGUUUGGACUGGGCAGAGCCCAACACAGCGUGGCAAAGAGGCUGUGGCUAGACUGCCUCUCUGGAUUCCUCGUCACUCAGCAGGGCAUCUCUGAGAGAAGUGCC as the variant, how does the self-cleavage read?
Answer: 0.21

Question: Which self-cleavage does the source give for UACGUAGGUGGUUUUCCCCUGAUAGUGCUAAGGGGGCCUGGAGGUUUGGACCGGGCAGAGCUCAACACAGCGUGACAAAGUGGCUGUGGCUAGACUGCCUCUCUGGAUUCCUCGUCACUCAGCAGGGCAUCUCUGAGAGAAAUGCC here?
Answer: 0.2

Question: For UACGUAGGUGGUUUUCCCCUGAUAGUGCUAAGGGGGCCUGGAUGUUUGGACUUGGCGGAGCUCAACACAGCGUGGCAAAGUGGCUGUGGCUAGGCUGCCUCUCUGGAACCCUCGUCACUCAGCAGGGCAUCUCUGAGAGAAAUGCC, which self-cleavage is on record?
Answer: 0.27

Question: With UACGUAGGUGGUUUUCCCCUGAUAGUGCUAAGGGGGCCUGGAGGUUUGGACUGGGCAGAGCUCAACACAGCGUGGCAAAGUGGCUGUGGCUAGACGGCCUCUCAGGAUUCCUCGUCACUCAGCAGGGCAUCUCUGAGAGAAAUGCC as the variant, how does the self-cleavage read?
Answer: 0.27

Reference: the RNAGym collection of RNA variant scans (doi:10.7554/elife.90254)
